# Assay results from publication PMC4336329 (PLoS ONE, 2015).
# The campaign covered roughly 310,000 compounds. About 14,000 (4.5%) showed an effect of 50% or more. Effects have a minus sign here. This is one part of the list. Where a SMILES comes first, the peptide text is derived from it. The star is where a group is joined. Boc = CC(C)(C)OC(=O)*; OBn = c1ccc(CO*)cc1
# Biological target: human ether-à-go-go-related gene (hERG) potassium channel (human, UniProt Q12809)
# Assay: primary screen, population patch clamp on CHO cells stably expressing hERG
# 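Note: peak tail current of the secondary pulse compared with the same well before compound.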
# Chain of human ether-à-go-go-related gene (hERG) potassium channel (Q12809 whole entry, looked up): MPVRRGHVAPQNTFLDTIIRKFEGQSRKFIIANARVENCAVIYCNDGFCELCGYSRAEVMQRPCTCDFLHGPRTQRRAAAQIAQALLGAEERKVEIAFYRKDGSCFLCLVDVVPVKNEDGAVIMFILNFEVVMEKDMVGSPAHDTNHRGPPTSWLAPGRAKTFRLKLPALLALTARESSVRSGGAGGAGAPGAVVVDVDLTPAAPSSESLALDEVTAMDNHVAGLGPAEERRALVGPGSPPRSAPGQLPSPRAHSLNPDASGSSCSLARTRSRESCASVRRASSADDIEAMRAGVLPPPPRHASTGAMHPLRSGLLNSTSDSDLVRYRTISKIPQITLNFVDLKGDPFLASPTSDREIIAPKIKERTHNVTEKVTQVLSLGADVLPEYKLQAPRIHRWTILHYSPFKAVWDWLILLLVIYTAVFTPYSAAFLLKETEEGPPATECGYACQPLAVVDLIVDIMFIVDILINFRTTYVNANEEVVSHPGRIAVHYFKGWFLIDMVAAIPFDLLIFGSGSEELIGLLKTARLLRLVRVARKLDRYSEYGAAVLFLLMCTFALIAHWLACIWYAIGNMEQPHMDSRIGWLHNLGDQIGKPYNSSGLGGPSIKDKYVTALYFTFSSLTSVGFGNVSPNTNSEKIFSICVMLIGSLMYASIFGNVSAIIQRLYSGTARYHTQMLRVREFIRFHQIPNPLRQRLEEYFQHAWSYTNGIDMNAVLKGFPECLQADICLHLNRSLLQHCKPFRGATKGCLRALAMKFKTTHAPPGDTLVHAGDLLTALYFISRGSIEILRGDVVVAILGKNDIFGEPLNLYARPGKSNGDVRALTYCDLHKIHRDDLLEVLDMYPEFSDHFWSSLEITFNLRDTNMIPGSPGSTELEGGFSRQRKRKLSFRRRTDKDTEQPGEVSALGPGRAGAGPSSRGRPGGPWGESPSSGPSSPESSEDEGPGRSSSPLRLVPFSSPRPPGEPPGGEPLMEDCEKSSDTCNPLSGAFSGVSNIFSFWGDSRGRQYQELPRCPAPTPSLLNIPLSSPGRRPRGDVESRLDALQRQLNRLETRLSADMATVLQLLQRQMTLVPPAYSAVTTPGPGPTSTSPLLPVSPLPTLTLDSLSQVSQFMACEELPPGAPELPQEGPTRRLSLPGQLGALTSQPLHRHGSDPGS
row,SMILES,"hERG current change (%, negative = inhibition) at 10uM [%]"
1,Cc1ccc(C(=O)OCC(=O)NCc2ccco2)cc1C,4.55
2,CCN(CC)S(=O)(=O)c1ccc2c3c(cccc13)C(=O)N2,-18.2
3,O=C(COc1ccc(-c2ccccc2)cc1)NNC(=O)NC1CCCCC1,-5.8
4,CCOC(=O)CNC(=O)c1ccccc1,0.49
5,Cc1c(C#N)c(O)n(CCO)c(=O)c1N=Nc1ccc(S(N)(=O)=O)cc1,-8.16
6,CCc1nc(SCc2ccc(Cl)cc2)n[nH]1,12
7,Cc1cccc2cc3c(nc12)-c1ccccc1C3=O,11.4
8,CCN(CC)c1ccc([N+](=O)[O-])cc1C(=O)N1CCOCC1,5.92
9,Cc1ccccc1NC(=O)Nc1nnc(CC(=O)NCc2ccccc2)s1,-19.9
10,CCc1cccc2c1NC(=O)C21N2CCCC2C(C(=O)c2ccc3ccccc3c2)C12C(=O)Nc1ccccc12 (centres unmarked),0.132
11,COc1ccc(Nc2nc(Cl)nc(NCCO)n2)cc1,-8.87
12,CC(C)C(NC(=O)OC(C)(C)C)C(=O)NC(CCC(=O)OCc1ccccc1)C(N)=O (stereo not drawn) (Boc-Val-Glu(OBn)-NH2; configuration not given here),20.2
13,Cc1ccccc1N/C(=N/S(=O)(=O)c1cc(F)ccc1F)c1ccccc1,-20.5
14,CCOc1cc(S(=O)(=O)NCc2ccncc2)ccc1Cl,-10.8
15,O=C(CNC(=O)c1cccc(Cl)c1)Nc1ccc(F)c(F)c1F,16.8
16,CC1(C)Cc2c(sc3nc(SCC(=O)O)nc(N)c23)CO1,18.9
17,CC1CCN(C(=O)CSc2nnc3c(n2)[nH]c2ccc(F)cc23)CC1,-11.3
18,Cc1cc(NC(=O)c2ccc(N3C(=O)C4C5C=CC(C5)C4C3=O)cc2)no1 (centres unmarked),8.53
19,CCN(CC(=O)Nc1ccccc1C(F)(F)F)C(=O)c1cc(S(=O)(=O)N2CCCCCC2)ccc1OC,-6.49
20,Cc1cc(C)cc(C(=O)NC(=S)Nc2ccc3c(c2)OCCO3)c1,-5.1
21,Cc1cccc(C2NC(c3cccc(C)c3)C([N+](=O)[O-])C(C)(C)C2[N+](=O)[O-])c1 (centres unmarked),0.615
22,N#Cc1c(-c2ccccc2)c(-c2ccccc2)n(Cc2ccco2)c1NC(=O)c1cccs1,12.6
23,O=C(COC(=O)CNC(=O)c1cccc(F)c1)NCCC1=CCCCC1,13.1
